The values below are quoted from earlier work in publication PMC10801772 (The Journal of Pharmacology and Experimental Therapeutics, 2024).

The pKa is the pH at which an ionisable group is half protonated. A word on the logP: it is the decadic logarithm of the partition coefficient of the neutral form, usually between octanol and water.

For series [1] the following is noted: ref Chemicalbook (https://www.chemicalbook.com); cited from earlier work.
The conditions of series [2]: ref Pubchem (https://pubchem.ncbi.nlm.nih.gov); cited from earlier work.

On to `Nc1ccncc1` [4-AP, 4-aminopyridine], for which the pKa in series [1] is 9.17. Also, the lipophilicity (logP) in series [2] is 0.3.
As to `[2H]c1nc([2H])c([2H])c(N)c1[2H]` [4-AP-d4, 4-aminopyridine-d4], in series [2], the logP is 0.3.
In the case of `Nc1ccncc1N` [3,4-DAP, 3,4-diaminopyridine], in series [1], the pKa was 9.17. Moreover, the lipophilicity (logP) in series [2] is listed as -0.5.
On to `[2H]c1nc([2H])c(N)c(N)c1[2H]` [3,4-DAP-d3, 3,4-diaminopyridine-d3], for which the logP in series [2] is -0.5.
Regarding `Nc1c(F)cncc1F` [3,5DF-4AP, 4-amino-3,5-difluoropyridine], in series [1], the pKa is 5.12. In addition, in series [2], the log partition coefficient (logP) is reported as 0.4.
With `Nc1ccnc(N)c1` [2,4-DAP, 2,4-diaminopyridine], in series [1], the pKa is recorded as 9.41. In addition, in series [2], the lipophilicity (logP) is -0.2.
For `Nc1ccnc(F)c1` [2F-4AP, 4-amino-2-fluoropyridine], in series [1], the pKa is 3.76. Moreover, in series [2], the logP is recorded as 0.6.
Regarding `Nc1ccncc1F` [3F-4AP, 4-amino-3-fluoropyridine], the pKa in series [1] was 7.19. For the same molecule, the lipophilicity (logP) in series [2] is given as 0.3.
With `Nc1cncc(N)c1N` [3,4,5-TAP, 3,4,5-triaminopyridine], the pKa in series [1] is recorded as 9.08. Moreover, the logP in series [2] is on record as -1.2.
With `Cc1cnccc1N` [3Me-4AP, 3-methyl-4-aminopyridine], the pKa in series [1] is on record as 9.43. Besides, in series [2], the logP is recorded as 0.5.
